Test results as given in PubChem BioAssay AID1508642 (National Center for Advancing Translational Sciences (NCATS), 2021).
The campaign covered roughly 43,000 compounds. About 200 (0.47%) were called active. Roughly 12% stayed inconclusive and do not appear here. Calls follow the shape of the dose curve; as a rule, active = well fitted cell-killing curve with a large enough effect; inconclusive = small, poorly fitted or top-dose-only effect, or effect the other way; inactive = flat fitted curve, though single readings scatter. The list shows a part of the results.

Assay: Cell viability qHTS assay in S16 Pmp22-F2sN cells; also: nearly all actives have a fitted effect of over 65% in size
Conditions: S16 Pmp22-F2sN Schwann cells (luciferase reporters placed in the Pmp22 gene) viability, CellTiter-Glo, 24 h; series mostly up to 57.5 µM; activity change, negative = cytotoxicity: at the top concentration
In short: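 CellTiter-Glo counter-screen, qHTS, 1536-well. Cells: S16(c9) Pmp22-F2sN, 500-1,000/well in DMEM + 10% FBS. Cpd 23 nL pin transfer, 24 h, 37C/5% CO2. Read: luminescence, CCD imager.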
% is scaled to controls: 0 for no effect and ±100 for the full control effect; potency is read from the fitted curve at half-maximal effect.

SMILES | activity change, negative = cytotoxicity | Potency
COc1cc(Cl)c(C)cc1NC(=O)CSc1nc2c(c(=O)[nH]1)CCCC2 | inactive: 15.3% | 
COC(=O)N1CCCc2cc(S(=O)(=O)N3CCN(c4ccccc4)CC3)ccc21 | inactive: 7.05% | 
CCCCNC(=O)CCCn1c(=O)c2ccccc2n(Cc2c(C)cc(C)cc2C)c1=O | inactive: 6.3% | 
CN(C)c1ccc(CNC(=O)c2cnc3sc(N4CCCCCC4)nn3c2=O)cc1 | inactive: 0.467% | 
COc1cc(OC)c(NC(=O)n2ncc3cc(Cl)ccc32)cc1Cl | inactive: 20.5% | 
COc1ccc(C2CC(=O)c3c([nH]c(C(=O)OC4CCCCCC4)c3C)C2)cc1 (stereo not drawn) | inactive: 14.6% | 
COc1ccc(OC)c(NC(=O)CSC2=Nc3ccccc3C3=NC(CC(=O)NCc4ccc(F)cc4)C(=O)N23)c1 (stereo not drawn) | inactive: -19.5% | 
COc1cccc(OCC(=O)NC2CC(=O)N(c3ccc4c(c3)OCCO4)C2)c1 (stereo not drawn) | inactive: -2.31% | 
COC(=O)c1ccccc1NC(=O)c1cc(C)nc2c1c(C)nn2-c1ccc(C)cc1 | inactive: 12% | 
COc1ccc2c(c1)c1c(c(=O)n(-c3ccc(OC)c(OC)c3)c(=O)n1CC(=O)N1CCCC1)n2C | inactive: 4.91% | 
Cc1ccc(NC(=O)N2CCN(c3nnc(C)c4c(C)n(-c5ccc(Cl)cc5)nc34)CC2)c(C)c1 | inactive: 9.48% | 
Cc1ccc(CNC(=O)CSc2ncc(S(=O)(=O)c3ccc(C)c(Cl)c3)c(=O)[nH]2)cc1 | inactive: 15.9% | 
O=C(Nc1ccccc1O)c1cc(S(=O)(=O)N2CCCC2)ccc1Cl | inactive: 14.7% | 
Cc1ccc2nc(-c3ccc(NC(=O)c4ccccc4S(C)(=O)=O)cc3)sc2c1 | inactive: 17.6% | 
CC1=C(C(N)=O)C(c2cccc(O)c2)n2ncnc2N1 (stereo not drawn) | inactive: -4.78% | 
O=C(c1cccs1)c1cn(CCOc2ccc(Cl)cc2)c2ccccc12 | inactive: -22.7% | 
COc1ccc(Cl)cc1NC(=O)Cn1c(=O)oc2cc(S(=O)(=O)N3CCCCCC3)ccc21 | inactive: -1.37% | 
Cc1ccc2sc(N(Cc3cccnc3)C(=O)Cc3ccccc3)nc2c1C | inactive: -6.67% | 
Cc1ccc(-n2nc3c(N4CCC(C(=O)NC5CCC(C)CC5)CC4)nnc(C)c3c2C)cc1 (stereo not drawn) | inactive: -23.4% | 
CCC(=O)Oc1cc(C(C)(C)C)cc2cc(-c3nc(-c4ccc(OC)cc4OC)no3)c(=O)oc12 | inactive: 2.76% | 
CCOc1ccc(N(CC(=O)Nc2cc(OC)cc(OC)c2)S(=O)(=O)c2c(C)[nH]c(=O)[nH]c2=O)cc1 | inactive: 4.96% | 
CN(C)CCNC(=O)c1ccc(Cn2c(SCc3ccc(F)cc3)nc3cccnc32)cc1 | inactive: -18% | 
Cc1ccc(C(=O)c2cn(Cc3ccccc3F)c3cc4c(cc3c2=O)OCCO4)cc1 | inactive: 1.4% | 
Cc1c(C(=O)N(C)C)sc2c1c(=O)n(-c1ccc(Cl)c(Cl)c1)c(=O)n2CC(=O)C(C)(C)C | inactive: 2.9% | 

SMILES | activity change, negative = cytotoxicity | Potency
COc1ccccc1CNC(=O)CCC(=O)N1CC(C)Sc2ccccc21 (stereo not drawn) | inactive: -19.5% | 
Cc1ccc(NC(=O)CSc2nc3ccccc3n2CC(=O)N2CCC(C)CC2)cc1C | inactive: -7.55% | 
Cc1csc2nc(COC(=O)c3cccc(NC(=O)c4cccc(Cl)c4)c3)cc(=O)n12 | inactive: -24.2% | 
CCc1nn(CC(=O)N2CCC(C)CC2)c(=O)c2cc3occc3n12 | inactive: 1.07% | 
CCCN(c1ccc(C(C)C)cc1)S(=O)(=O)c1ccc2c(c1)n(C)c(=O)c(=O)n2C | inactive: -2.54% | 
Cc1cccc(N2CCN(C(=O)CN3C(=O)COc4ccc(S(=O)(=O)N5CCC(C)CC5)cc43)CC2)c1C | inactive: 6.53% | 
COc1ccc(C(=O)Nc2cccc(-c3cn4ccsc4n3)c2)c(OC)c1 | inactive: 0.202% | 
O=S(=O)(Nc1cccc(C(F)(F)F)c1)c1ccc(NS(=O)(=O)c2ccc3c(c2)OCCO3)cc1 | inactive: 5.13% | 
COc1cccc(CNc2nc3ccccc3c3nc(-c4cccc(C)c4)nn23)c1 | inactive: 7.73% | 
CC(=O)c1cccc(NC(=O)Nc2c(C)n(C)n(-c3ccccc3)c2=O)c1 | inactive: -10.7% | 
COc1ccc(-c2cc(-c3ccccc3)nc(SCC(=O)Nc3ccccc3C)c2C#N)cc1 | inactive: -1.69% | 
Cc1ccc(CN(Cc2ccco2)C(=O)c2ccc(Cl)cc2Cl)cc1 | inactive: -22.7% | 
COc1ccc(CCNC(=O)Cn2nnc(-c3ccc(Cl)cc3)n2)cc1OC | inactive: 7.7% | 
O=C(CSc1ccc(-c2cccs2)nn1)Nc1ccccc1 | inactive: -12.3% | 
Cc1cccc(-c2nc(CCNC(=O)COc3ccccc3)cs2)c1 | inactive: 12.8% | 
CN(C)CCNC(=O)c1ccc(-n2c(-c3ccccc3)cc3c2CCCCC3)cc1 | inactive: 12.4% | 
CC(C)Oc1ccc(CN2CCc3nc(Nc4ccc5c(c4)OCCO5)ncc3C2)cc1 | inactive: 4.97% | 
Cc1ccc(Sc2c(C(=O)NCc3cccc(F)c3)[nH]c3ccccc23)cc1 | inactive: 21.3% | 
CC(NC(=O)CN1C(=O)COc2ccc(S(=O)(=O)N3CCCCCC3)cc21)c1ccccc1 (stereo not drawn) | inactive: 14.7% | 
CCOCCCn1c(SCC(=O)Nc2cc(C)ccc2C)nc2c(oc3ccccc32)c1=O | inactive: 0.917% | 
COC(=O)c1ccc(NC(=O)CN2CCCN(Cc3ccc(Cl)cc3)S2(=O)=O)cc1 | inactive: 3.82% | 
Cc1ccc(-c2nc3cc(NC(=O)c4cc5ccccc5o4)ccc3o2)cc1Cl | inactive: 0.472% | 
CCN1CCc2c(sc(NC(=O)c3ccc(S(=O)(=O)N(CCOC)CCOC)cc3)c2C(N)=O)C1 | inactive: 11.2% | 
COc1ccc(CC(=O)NCCS(=O)(=O)N2CCN(c3ccccc3F)CC2)cc1OC | inactive: -2.63% | 

SMILES | activity change, negative = cytotoxicity | Potency
Cc1ccc(C(=O)Nc2ccccc2C(=O)OCc2cc(=O)n3nc(C(C)C)sc3n2)cc1 | inactive: 9.69% | 
Cc1ccc(Cl)cc1N1CCN(CCCNC(=O)Cn2ncc3c([nH]c4ccccc43)c2=O)CC1 | inactive: 2.12% | 
Cc1ccc(C)c(NC(=O)CN(C)S(=O)(=O)c2cccc3cccnc23)c1 | inactive: 16.2% | 
COC(=O)c1ccccc1NC(=O)C1=CC(c2ccc3c(c2)OCO3)=NS(=O)(=O)N1C | inactive: 1.76% | 
Cc1ccc(CNc2nc3ccc(Cl)cc3n3cnnc23)cc1 | inactive: 2.67% | 
CCc1cccc(C)c1Nc1c(-c2ccc(SC)cc2)nc2sccn12 | inactive: -7.96% | 
O=C(CC1N=C2c3ccccc3N=C(SCc3ccc(F)cc3)N2C1=O)NC1CCCCC1 (stereo not drawn) | inactive: -28.4% | 
Fc1ccc(-c2noc3ncnc(Nc4ccc(F)cc4F)c23)cc1 | inactive: -28.8% | 
Cc1cccc(NC(=O)Cn2c(=O)n(Cc3ccccc3)c(=O)c3sc4ccccc4c32)c1 | inactive: 12.5% | 
CCOc1ccc(N(C(=O)c2ccc(Cl)cc2)S(=O)(=O)c2ccc3c(c2)n(C)c(=O)n3C)cc1 | inactive: 8.49% | 
CCOc1ccc(CCNC(=O)c2cccc(Nc3nc4ccccc4nc3-n3nc(C)cc3C)c2)cc1OCC | inactive: 4.64% | 
Cc1ccc(C)c(NC(=O)CSc2nc(-c3ccccc3)c(C#N)c(=O)[nH]2)c1 | inactive: 3.7% | 
CCc1nc2ccccc2n2c(-c3ccc(C)cc3)c3c(=O)n(C)c(=O)n(C)c3c12 | inactive: -19.1% | 
COc1ccc(-n2nc3ccc(NC(=O)c4c(OC)cccc4OC)cc3n2)cc1 | inactive: -2.07% | 
O=C(Cn1c(=O)n(-c2ccc(F)cc2)c(=O)c2sc3ccccc3c21)NC1CCCC1 | inactive: 20.2% | 
CCc1ccc2oc(C(=O)Nc3ccccc3OC)cc(=O)c2c1 | inactive: -2.37% | 
NC(=O)C1CCN(C(=O)c2ccc3c(c2)N(Cc2cccc(Cl)c2)C(=O)c2ccccc2S3=O)CC1 (stereo not drawn) | inactive: 2.17% | 
COc1ccc(CSc2nc3ccncc3n2CC(=O)Nc2cc(C)cc(C)c2)cc1 | inactive: 4.68% | 
CCOC(=O)c1c(C)[nH]c(C)c1S(=O)(=O)NCC(=O)Nc1ccc(C)cc1C | inactive: -2.23% | 
Cc1csc2nc(COC(=O)CNC(=O)c3ccc(F)cc3)cc(=O)n12 | inactive: -1.1% | 
Cc1cccc(N2CCN(C(c3ccccc3)c3nnc(-c4ccccc4F)o3)CC2)c1C (stereo not drawn) | inactive: -3.12% | 
Fc1ccc(Nc2nc(SCc3ccccc3Cl)nc3ccccc23)cc1 | inactive: -22.9% | 
Cc1cc(C)cc(NC(=O)C2CCCN(S(=O)(=O)c3cccc4nsnc34)C2)c1 (stereo not drawn) | inactive: 0.569% | 
COc1ccc(NC(=O)CSc2nc(-c3cccs3)cc(C(F)(F)F)n2)cc1Cl | inactive: 0.325% | 

SMILES | activity change, negative = cytotoxicity | Potency
CCc1ccc(NCc2cc3ccc(OC)cc3n(CC(=O)Nc3ccccc3C)c2=O)cc1 | inactive: 22.4% | 
CC(=O)c1cccc(NC(=O)CSc2nc3c(c(=O)[nH]2)CCC3)c1 | inactive: 3.86% | 
CCc1ccc(C(=O)CC2(O)C(=O)N(CCc3ccccc3)c3ccc(Br)cc32)cc1 (stereo not drawn) | inactive: -18.4% | 
CCCCN(CCCC)CCNC(=O)Cn1nc(CC)n2c(cc3sccc32)c1=O | inactive: 16.4% | 
COC(=O)c1ccc(Cl)cc1NC(=O)Nc1nnc(N(C)C2CCCCC2)s1 | inactive: 6.27% | 
CCc1ccccc1S(=O)(=O)Cc1ccc(C(=O)NCc2ccc(Cl)cc2)o1 | inactive: -14.4% | 
Cc1ccc(CNC(=O)C(NS(=O)(=O)c2cccs2)C(C)C)cc1 (stereo not drawn) | inactive: 9.28% | 
COc1ccc(CCC(=O)NCc2ccc3c(c2)CCN3C(=O)c2ccc(Cl)cc2)cc1 | inactive: -5.96% | 
Cc1ccc(CSC2=Nc3ccccc3C3=NC(CCC(=O)NC4CCCCC4)C(=O)N23)cc1 (stereo not drawn) | inactive: -4.21% | 
COCc1cc(C)nc2sc(C(=O)Nc3ccccc3O)c(N)c12 | inactive: -1.92% | 
Cc1ccc(OCCn2cc(C(=O)c3cccs3)c3ccccc32)cc1 | inactive: -4.82% | 
CCOc1ccc(C2=NC(c3ccncc3)=Nc3ccc(C)cc3N2)cc1OCC | inactive: 3.07% | 
CCCSCCCNC(=O)C1CCN(C(=O)c2cnn(-c3ccccc3)c2-n2cccc2)CC1 | inactive: -1.69% | 
COc1ccc(CNC(=O)Cn2c(=O)nc(-c3ccccc3)c3cc(Cl)ccc32)cc1OC | inactive: 3.78% | 
COc1ccccc1NC(=O)C1=C(C)Nc2c(C(=O)Nc3ccc(C)cc3)cnn2C1c1cccc(OC)c1OC (stereo not drawn) | inactive: 0.83% | 
Cc1ccccc1NC(=O)c1cc2c(-c3ccccc3)nn(-c3ccccc3)c2s1 | inactive: -3.43% | 
COc1ccc(N(Cc2ccccc2)C(=O)c2nc(S(C)(=O)=O)ncc2Cl)cc1 |  | active: 4.47 µM
CCn1c2ccccc2c2nnc(N3CCN(c4cccc(Cl)c4)CC3)nc21 | inactive: 12.1% | 
CCOC(=O)c1c(C)[nH]c(CCC(=O)NCc2ccc(OC)c(OC)c2)c1C | inactive: 3.37% | 
COc1ccc(-c2noc(CCCC(=O)Nc3cccc(Cl)c3C)n2)cc1 | inactive: -17.7% | 
Cc1ccc(CN2CCSc3ccc(C(=O)NCc4ccc(OC(C)C)cc4)cc32)cc1 | inactive: 21.5% | 
